# Results taken from article PMC4336329 (PLoS ONE, 2015).
# Hit rate of the full screen: of about 310,000 compounds, about 14,000 (4.5%) showed an effect of 50% or more. Effects have a minus sign here. This is one part of the list.
# Target: human ether-à-go-go-related gene (hERG) potassium channel (human, UniProt Q12809)
# Assay: primary screen, population patch clamp on CHO cells stably expressing hERG
# 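Note: peak tail current of the secondary pulse compared with the same well before compound.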
# human ether-à-go-go-related gene (hERG) potassium channel, sequence (Q12809 whole entry, looked up): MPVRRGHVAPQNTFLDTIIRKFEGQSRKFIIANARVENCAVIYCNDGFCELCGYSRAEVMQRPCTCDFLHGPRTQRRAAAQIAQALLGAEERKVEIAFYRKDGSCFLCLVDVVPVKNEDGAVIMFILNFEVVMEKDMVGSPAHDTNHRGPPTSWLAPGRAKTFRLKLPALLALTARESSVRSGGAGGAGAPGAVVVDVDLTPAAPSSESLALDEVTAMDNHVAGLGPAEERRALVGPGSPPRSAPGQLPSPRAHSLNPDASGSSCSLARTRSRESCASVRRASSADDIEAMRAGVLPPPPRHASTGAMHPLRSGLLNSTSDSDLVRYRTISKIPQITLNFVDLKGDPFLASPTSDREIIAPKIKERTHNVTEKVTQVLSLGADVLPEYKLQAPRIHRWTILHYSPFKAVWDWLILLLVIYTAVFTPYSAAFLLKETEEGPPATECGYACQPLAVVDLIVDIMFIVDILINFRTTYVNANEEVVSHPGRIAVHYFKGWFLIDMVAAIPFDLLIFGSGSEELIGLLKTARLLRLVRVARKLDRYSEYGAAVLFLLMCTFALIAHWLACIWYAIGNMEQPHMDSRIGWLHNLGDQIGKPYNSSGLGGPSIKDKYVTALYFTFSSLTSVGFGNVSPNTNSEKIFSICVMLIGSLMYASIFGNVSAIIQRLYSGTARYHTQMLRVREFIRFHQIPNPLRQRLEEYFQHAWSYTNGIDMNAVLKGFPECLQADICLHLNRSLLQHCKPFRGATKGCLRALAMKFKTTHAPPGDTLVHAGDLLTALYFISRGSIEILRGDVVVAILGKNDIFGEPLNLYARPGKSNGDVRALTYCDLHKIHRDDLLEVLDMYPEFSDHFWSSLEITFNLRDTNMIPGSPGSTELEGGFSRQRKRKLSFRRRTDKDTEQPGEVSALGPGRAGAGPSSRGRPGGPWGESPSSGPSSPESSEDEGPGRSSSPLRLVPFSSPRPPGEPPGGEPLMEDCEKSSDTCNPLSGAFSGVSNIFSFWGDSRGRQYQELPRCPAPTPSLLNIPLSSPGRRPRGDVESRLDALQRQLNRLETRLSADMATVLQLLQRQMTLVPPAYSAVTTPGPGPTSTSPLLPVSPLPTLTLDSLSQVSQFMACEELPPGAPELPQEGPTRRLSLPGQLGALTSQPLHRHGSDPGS
row,SMILES,"hERG current change (%, negative = inhibition) at 10uM [%]"
1,O=C(NNC(=O)c1cccnc1SCc1cccc([N+](=O)[O-])c1)c1ccc(F)cc1,1.86
2,CCOc1ccc(CCNC(=O)COC(=O)COc2ccc(Br)cc2)cc1OCC,16.3
3,Cc1ccc(C)c(NC(=S)NC(=O)c2cncc(Br)c2)c1,-10.6
4,COc1cccc(NC(=O)C2CC(=O)n3cnnc3S2)c1 (centres unmarked),11.9
5,N#CC1=C(N)OC2=C(C(=O)CC(c3ccccc3)C2)C1c1ccoc1 (centres unmarked),-27.3
6,O=C(CN(c1ccccc1)S(=O)(=O)c1ccccc1)NCCSc1ccccn1,12.8
7,O=C(NC(=S)Nc1ccc(N2CCOCC2)cc1)c1ccco1,18.9
8,CC1CCN(S(=O)(=O)c2ccc3c(c2)oc(=O)n3C)CC1,22
9,CCC(C(=O)N1CCOCC1)n1nc(C)n2c(cc3cc(C)ccc32)c1=O (centres unmarked),4.7
10,CC(C(=O)OCC(=O)Nc1ncc(Cl)cc1Cl)N1C(=O)c2ccccc2C1=O (centres unmarked),-17.5
11,COc1ccc(/C=N/Nc2ncc(C(F)(F)F)cc2Cl)c(OC)c1OC,-1.15
12,CC1(C)CC(=O)C=C(CN2C(=O)c3ccccc3C2=O)C1=O,20.9
13,Cn1cc(CN2CCCC(CO)C2)c(-c2ccc(Oc3ccccc3)cc2)n1 (centres unmarked),-26.2
14,Cc1ccc(/C=C/C(=O)OCC(=O)N(CC(C)C)c2c(N)n(Cc3ccccc3)c(=O)[nH]c2=O)o1,8.59
15,CCN(CC)S(=O)(=O)c1ccc(C(=O)Nc2cccc(C)c2)cc1,6.22
16,Cc1cc(-n2cccn2)ccc1CN1CCN(CC(C)C)C(CCO)C1 (centres unmarked),-45.5
17,CCN(CC)CCCNc1oc(-c2ccc(OC)c(OC)c2)nc1C#N,-34
18,CN1CCN(Cc2coc3c(Cl)cc(Cl)cc3c2=O)CC1.O=C(O)C(=O)O,3.47
19,COCc1nnc(NC(=O)C2CC(=O)N(c3ccc(C)c(Cl)c3)C2)s1 (centres unmarked),-1.43
20,O=C(CCC1CCCC1)NCCS(=O)(=O)N1CCN(c2ccccc2)CC1,-12.9
21,COc1ccc(OC)c(CNC(=O)CCNC(=O)Cn2ccc3ccccc3c2=O)c1,-11.5
22,O=C(CNC(=O)c1cccc(Br)c1)N/N=C/c1cccnc1,-14

row,SMILES,"hERG current change (%, negative = inhibition) at 10uM [%]"
1,O=C(COC(=O)c1cccc(NS(=O)(=O)/C=C/c2ccccc2)c1)Nc1ccccc1OC(F)F,6.3
2,CC(C)C(=O)NC(NC(=O)C(C)C)c1ccc([N+](=O)[O-])cc1,0.0956
3,CCn1c(=NC(=O)CSC(C)=O)sc2cc(OC)ccc21,-17.2
4,CCC(C)NC(=S)N1CCN(C(c2ccccc2)c2ccccc2)CC1 (centres unmarked),-59.6
5,CCOC(=O)N1CCN(S(=O)(=O)c2ccc(C(=O)Nc3nnc(C4CC4)o3)cc2)CC1,-30.4
6,COc1ccccc1OCCCn1c(=O)sc2ccccc21,-13.3
7,CN1CCN(S(=O)(=O)c2ccc(Br)c3nsnc23)CC1,-6.26
8,Cc1cc([N+](=O)[O-])ccc1NC(=O)c1sc2ncn(CC(=O)N3CCOCC3)c(=O)c2c1C,-0.176
9,Cc1ccc(-n2c(SCC(=O)Nc3cc(C)on3)nc3ccccc3c2=O)cc1,9.64
10,CCc1nnc(NC(=O)CSc2nnc(CNc3cccc(C)c3)n2-c2ccccc2)s1,3.35
11,O=c1cc(Cl)[nH]c(=O)n1CCNc1ncc(C(F)(F)F)cc1Cl,-2.67
12,CC(C)=CCN1CCN(Cc2c[nH]c3ccccc23)CC1CCO (centres unmarked),-1.98
13,Fc1ccc(/C=N/Nc2nccnc2Cl)cc1,9.05
14,CC1=C(C(=O)OCCOc2ccccc2)C(c2ccc(C)o2)C2=C(CC(C)(C)CC2=O)N1 (centres unmarked),-0.0235
15,Cc1ccc2[nH]c(=O)c(CN(CCCN3CCOCC3)C(=O)Nc3ccc(Cl)cc3)cc2c1,-71.7
16,COc1ccc(NC(=O)CSc2nc(=O)n(CCN3CCOCC3)c3c2CCCC3)c(OC)c1,-34.6
17,COc1ccc(-c2cc(C(=O)N3CC4(C)CC3CC(C)(C)C4)no2)cc1OC (centres unmarked),-20.1
18,CCOc1ccc(NC(=O)CC(=O)Nc2ccc(OCC)cc2)cc1,18.4
19,Cc1ccc(-c2nc3ccccc3s2)cc1NC(=S)NC(=O)/C=C/c1ccco1,-3.62
20,CCOc1ccc(-c2cn3ccccc3n2)cc1,12.3
21,COC(=O)c1cn(CCOc2ccccc2F)c2ccccc12,-3.48
22,Cc1ccc(NC(=O)c2cccs2)cc1,-11.7
